# The list shows a part of the results.
# Experiments:
# Assay in all cases: glycan array binding signal (z-score within array); higher = stronger binding
# Conditions in all cases: glycan notation: IUPAC condensed, linker removed
# [1] = molecular target: Neu5Ac(a2-3)Gal(b1-4)GlcNAc(b1-2)Man(a1-3)[Neu5Ac(a2-6)Gal(b1-4)GlcNAc(b1-2)Man(a1-6)]Man(b1-4)GlcNAc(b1-4)GlcNAc
# Procedure, shortened: (§1)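 Columns mapping to the same glycan were averaged after glycan names were converted to IUPAC-condensed notation. The data come from 3228 arrays in the Consortium for Functional Glycomics database, limited to those with an available protein sequence. Binding is reported as a within-array Z-score averaged across arrays of one protein sequence and across linkers.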
# [2] = molecular target: Neu5Ac(a2-3)Gal(b1-4)GlcNAc(b1-2)[Neu5Ac(a2-3)Gal(b1-4)GlcNAc(b1-4)]Man(a1-3)[GlcNAc(b1-4)][Neu5Ac(a2-3)Gal(b1-4)GlcNAc(b1-2)[Neu5Ac(a2-3)Gal(b1-4)GlcNAc(b1-6)]Man(a1-6)]Man(b1-4)GlcNAc(b1-4)GlcNAc
# Procedure, shortened: as §1
# [3] = molecular target: Neu5Ac(a2-3)Gal(b1-4)GlcNAc(b1-2)[Neu5Ac(a2-3)Gal(b1-4)GlcNAc(b1-4)]Man(a1-3)[GlcNAc(b1-4)][Neu5Ac(a2-3)Gal(b1-4)GlcNAc(b1-4)Man(a1-6)]Man(b1-4)GlcNAc(b1-4)GlcNAc
# Procedure, shortened: as §1
# [4] = molecular target: Neu5Ac(a2-3)Gal(b1-4)GlcNAc(b1-2)[Neu5Ac(a2-3)Gal(b1-4)GlcNAc(b1-6)]Man(a1-6)[Neu5Ac(a2-3)Gal(b1-4)GlcNAc(b1-2)Man(a1-3)][GlcNAc(b1-4)]Man(b1-4)GlcNAc(b1-4)GlcNAc
# Procedure, shortened: as §1
# [5] = molecular target: Neu5Ac(a2-3)Gal(b1-4)GlcNAc(b1-3)Gal
# Procedure, shortened: as §1
# [6] = molecular target: Neu5Ac(a2-3)Gal(b1-4)GlcNAc(b1-3)Gal(b1-3)GlcNAc
# Procedure, shortened: as §1
# [7] = molecular target: Neu5Ac(a2-3)Gal(b1-4)GlcNAc(b1-3)Gal(b1-4)GlcNAc
# Procedure, shortened: as §1
# [8] = molecular target: Neu5Ac(a2-3)Gal(b1-4)GlcNAc(b1-3)Gal(b1-4)GlcNAc(b1-2)Man(a1-3)[Neu5Ac(a2-3)Gal(b1-4)GlcNAc(b1-3)Gal(b1-4)GlcNAc(b1-2)Man(a1-6)]Man(b1-4)GlcNAc(b1-4)GlcNAc
# Procedure, shortened: as §1
# [9] = molecular target: Neu5Ac(a2-3)Gal(b1-4)GlcNAc(b1-3)Gal(b1-4)GlcNAc(b1-3)Gal(b1-4)GlcNAc
# Procedure, shortened: as §1
# [10] = molecular target: Neu5Ac(a2-3)Gal(b1-4)GlcNAc(b1-3)Gal(b1-4)GlcNAc(b1-3)Gal(b1-4)GlcNAc(b1-2)Man(a1-3)[Neu5Ac(a2-3)Gal(b1-4)GlcNAc(b1-3)Gal(b1-4)GlcNAc(b1-3)Gal(b1-4)GlcNAc(b1-2)Man(a1-6)]GalNAc
# Procedure, shortened: as §1
# [11] = molecular target: Neu5Ac(a2-3)Gal(b1-4)GlcNAc(b1-3)Gal(b1-4)GlcNAc(b1-3)GalNAc
# Procedure, shortened: as §1
# [12] = molecular target: Neu5Ac(a2-3)Gal(b1-4)GlcNAc(b1-3)Gal(b1-4)GlcNAc(b1-3)[Neu5Ac(a2-3)Gal(b1-4)GlcNAc(b1-3)Gal(b1-4)GlcNAc(b1-6)]GalNAc
# Procedure, shortened: as §1
# [13] = molecular target: Neu5Ac(a2-3)Gal(b1-4)GlcNAc(b1-3)Gal(b1-4)GlcNAc(b1-6)[Gal(b1-3)]GalNAc
# Procedure, shortened: as §1
# [14] = molecular target: Neu5Ac(a2-3)Gal(b1-4)GlcNAc(b1-3)Gal(b1-4)[Fuc(a1-3)]GlcNAc
# Procedure, shortened: as §1
# [15] = molecular target: Neu5Ac(a2-3)Gal(b1-4)GlcNAc(b1-3)GalNAc
# Procedure, shortened: as §1
# [16] = molecular target: Neu5Ac(a2-3)Gal(b1-4)GlcNAc(b1-3)[Neu5Ac(a2-3)Gal(b1-4)GlcNAc(b1-6)]GalNAc
# Procedure, shortened: as §1
# [17] = molecular target: Neu5Ac(a2-3)Gal(b1-4)GlcNAc(b1-6)GalNAc
# Procedure, shortened: as §1
# [18] = molecular target: Neu5Ac(a2-3)Gal(b1-4)GlcNAc(b1-6)[Gal(b1-3)]GalNAc
# Procedure, shortened: as §1
# [19] = molecular target: Neu5Ac(a2-3)Gal(b1-4)GlcNAc(b1-6)[Neu5Ac(a2-3)Gal(b1-3)]GalNAc
# Procedure, shortened: as §1
# [20] = molecular target: Neu5Ac(a2-3)Gal(b1-4)GlcNAc6S
# Procedure, shortened: as §1
# [21] = molecular target: Neu5Ac(a2-3)Gal(b1-4)[Fuc(a1-3)]GlcNAc
# Procedure, shortened: as §1
# [22] = molecular target: Neu5Ac(a2-3)Gal(b1-4)[Fuc(a1-3)]GlcNAc(b1-2)Man
# Procedure, shortened: as §1
# [23] = molecular target: Neu5Ac(a2-3)Gal(b1-4)[Fuc(a1-3)]GlcNAc(b1-3)Gal
# Procedure, shortened: as §1
# [24] = molecular target: Neu5Ac(a2-3)Gal(b1-4)[Fuc(a1-3)]GlcNAc(b1-3)Gal(b1-4)GlcNAc
# Procedure, shortened: as §1
# [25] = molecular target: Neu5Ac(a2-3)Gal(b1-4)[Fuc(a1-3)]GlcNAc(b1-3)Gal(b1-4)[Fuc(a1-3)]GlcNAc(b1-3)Gal(b1-4)[Fuc(a1-3)]GlcNAc
# Procedure, shortened: as §1
# [26] = molecular target: Neu5Ac(a2-3)Gal(b1-4)[Fuc(a1-3)]GlcNAc(b1-3)GalNAc
# Procedure, shortened: as §1
# [27] = molecular target: Neu5Ac(a2-3)Gal(b1-4)[Fuc(a1-3)]GlcNAc(b1-6)[Gal(b1-3)]GalNAc
# Procedure, shortened: as §1
# [28] = molecular target: Neu5Ac(a2-3)Gal(b1-4)[Fuc(a1-3)]GlcNAc(b1-6)[Neu5Ac(a2-3)Gal(b1-3)]GalNAc
# Procedure, shortened: as §1
# [29] = molecular target: Neu5Ac(a2-3)Gal(b1-4)[Fuc(a1-3)]GlcNAc6S
# Procedure, shortened: as §1
# [30] = molecular target: Neu5Ac(a2-3)Gal6S(b1-4)GlcNAc
# Procedure, shortened: as §1
# [31] = molecular target: Neu5Ac(a2-3)Gal6S(b1-4)[Fuc(a1-3)]GlcNAc
# Procedure, shortened: as §1
# Neu5Ac(a2-3)GalNAc = molecular target: Neu5Ac(a2-3)GalNAc
# Procedure, shortened: as §1
# [32] = molecular target: Neu5Ac(a2-3)GalNAc(b1-4)GlcNAc
# Procedure, shortened: as §1
# [33] = molecular target: Neu5Ac(a2-3)[GalNAc(b1-4)]Gal(b1-4)Glc
# Procedure, shortened: as §1
# [34] = molecular target: Neu5Ac(a2-3)[GalNAc(b1-4)]Gal(b1-4)GlcNAc
# Procedure, shortened: as §1
# [35] = molecular target: Neu5Ac(a2-3)[GalNAc(b1-4)]Gal(b1-4)GlcNAc(b1-3)GalNAc
# Procedure, shortened: as §1
# [36] = molecular target: Neu5Ac(a2-3)[Neu5Ac(a2-6)]GalNAc
# Procedure, shortened: as §1
# Neu5Ac(a2-6)Gal = molecular target: Neu5Ac(a2-6)Gal
# Procedure, shortened: as §1
# [37] = molecular target: Neu5Ac(a2-6)Gal(b1-3)GlcNAc(b1-3)[Gal(b1-4)GlcNAc(b1-6)]Gal(b1-4)Glc
# Procedure, shortened: as §1
# Neu5Ac(a2-6)Gal(b1-4)Glc = molecular target: Neu5Ac(a2-6)Gal(b1-4)Glc
# Procedure, shortened: as §1
# [38] = molecular target: Neu5Ac(a2-6)Gal(b1-4)GlcNAc
# Procedure, shortened: as §1
# [39] = molecular target: Neu5Ac(a2-6)Gal(b1-4)GlcNAc(b1-2)Man
# Procedure, shortened: as §1
# [40] = molecular target: Neu5Ac(a2-6)Gal(b1-4)GlcNAc(b1-2)Man(a1-3)Man(b1-4)GlcNAc(b1-4)GlcNAc
# Procedure, shortened: as §1
# [41] = molecular target: Neu5Ac(a2-6)Gal(b1-4)GlcNAc(b1-2)Man(a1-3)[Gal(b1-4)GlcNAc(b1-2)Man(a1-6)]Man(b1-4)GlcNAc(b1-4)GlcNAc
# Procedure, shortened: as §1
# [42] = molecular target: Neu5Ac(a2-6)Gal(b1-4)GlcNAc(b1-2)Man(a1-3)[GlcNAc(b1-2)Man(a1-6)]Man(b1-4)GlcNAc(b1-4)GlcNAc
# Procedure, shortened: as §1
binder,measurement,setting,value
"CGL (Crenomytilus grayanus), H2FH31 (protein) MTTFLIKHKASGKFLHPYGGSSNPANNTKLVLHSDIHERMYFQFDVVDERWGYIKHVASGKIVHPYGGQANPPNETNMVLHQDRHDRALFAMDFFNDNIMHKGGKYIHPKGGSPNPPNNTETVIHGDKHAAMEFIFVSPKNKDKRVLVYA",glycan array binding signal (z-score),[1],-0.439
same,glycan array binding signal (z-score),[2],-0.348
same,glycan array binding signal (z-score),[3],-0.331
same,glycan array binding signal (z-score),[4],-0.326
same,glycan array binding signal (z-score),[5],-0.435
same,glycan array binding signal (z-score),[6],-0.425
same,glycan array binding signal (z-score),[7],-0.25
same,glycan array binding signal (z-score),[8],-0.345
same,glycan array binding signal (z-score),[9],-0.356
same,glycan array binding signal (z-score),[10],-0.26
same,glycan array binding signal (z-score),[11],-0.286
same,glycan array binding signal (z-score),[12],-0.302
same,glycan array binding signal (z-score),[13],-0.35
same,glycan array binding signal (z-score),[14],-0.28
same,glycan array binding signal (z-score),[15],-0.272
same,glycan array binding signal (z-score),[16],-0.248
same,glycan array binding signal (z-score),[17],-0.43
same,glycan array binding signal (z-score),[18],-0.37
same,glycan array binding signal (z-score),[19],-0.386
same,glycan array binding signal (z-score),[20],-0.278
same,glycan array binding signal (z-score),[21],-0.389
same,glycan array binding signal (z-score),[22],-0.429
same,glycan array binding signal (z-score),[23],-0.349
same,glycan array binding signal (z-score),[24],-0.191
same,glycan array binding signal (z-score),[25],-0.448
same,glycan array binding signal (z-score),[26],-0.236
same,glycan array binding signal (z-score),[27],-0.345
same,glycan array binding signal (z-score),[28],-0.288
same,glycan array binding signal (z-score),[29],-0.328
same,glycan array binding signal (z-score),[30],-0.369
same,glycan array binding signal (z-score),[31],-0.428
same,glycan array binding signal (z-score),Neu5Ac(a2-3)GalNAc,-0.335
same,glycan array binding signal (z-score),[32],-0.345
same,glycan array binding signal (z-score),[33],-0.429
same,glycan array binding signal (z-score),[34],-0.361
same,glycan array binding signal (z-score),[35],-0.239
same,glycan array binding signal (z-score),[36],-0.341
same,glycan array binding signal (z-score),Neu5Ac(a2-6)Gal,-0.346
same,glycan array binding signal (z-score),[37],-0.329
same,glycan array binding signal (z-score),Neu5Ac(a2-6)Gal(b1-4)Glc,-0.342
same,glycan array binding signal (z-score),[38],-0.341
same,glycan array binding signal (z-score),[39],-0.404
same,glycan array binding signal (z-score),[40],-0.331
same,glycan array binding signal (z-score),[41],-0.221
same,glycan array binding signal (z-score),[42],-0.374

# Source: the supplement of paper PMC8728848
